Data on four substances can be found in publication PMC5013012.

Chains of the proteins cited; added tags and fusions are not shown. Lines headed by an entry give the natural chain unless they say otherwise; changes in a name come on top. Residues count along the entry.
UniProt P31750: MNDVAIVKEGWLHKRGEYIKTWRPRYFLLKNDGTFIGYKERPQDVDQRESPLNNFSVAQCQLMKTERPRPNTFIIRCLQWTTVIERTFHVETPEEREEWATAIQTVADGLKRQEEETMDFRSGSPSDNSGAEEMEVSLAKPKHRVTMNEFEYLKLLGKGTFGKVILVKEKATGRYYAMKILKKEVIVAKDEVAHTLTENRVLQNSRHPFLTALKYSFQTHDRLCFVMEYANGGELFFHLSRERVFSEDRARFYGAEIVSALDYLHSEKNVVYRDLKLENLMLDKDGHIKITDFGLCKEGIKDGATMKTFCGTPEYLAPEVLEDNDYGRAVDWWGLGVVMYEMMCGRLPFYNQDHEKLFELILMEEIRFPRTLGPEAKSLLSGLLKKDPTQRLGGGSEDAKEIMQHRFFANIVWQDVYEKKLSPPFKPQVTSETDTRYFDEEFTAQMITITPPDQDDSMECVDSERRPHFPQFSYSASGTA
UniProt P31749: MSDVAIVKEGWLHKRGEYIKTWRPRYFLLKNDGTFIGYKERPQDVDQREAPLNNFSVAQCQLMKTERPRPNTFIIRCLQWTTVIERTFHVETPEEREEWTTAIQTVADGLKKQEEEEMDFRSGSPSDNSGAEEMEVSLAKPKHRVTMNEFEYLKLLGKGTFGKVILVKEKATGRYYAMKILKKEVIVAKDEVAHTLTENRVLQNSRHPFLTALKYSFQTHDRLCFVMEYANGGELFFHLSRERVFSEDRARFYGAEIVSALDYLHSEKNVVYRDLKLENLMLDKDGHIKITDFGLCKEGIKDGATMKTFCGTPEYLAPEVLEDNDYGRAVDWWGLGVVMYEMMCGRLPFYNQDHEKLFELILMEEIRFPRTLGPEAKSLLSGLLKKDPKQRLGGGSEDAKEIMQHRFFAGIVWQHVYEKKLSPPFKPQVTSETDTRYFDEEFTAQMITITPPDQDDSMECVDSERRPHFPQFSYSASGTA
Akt1 fragment containing amino acids 4-111: residues 4-111 of P31749
Akt1 fragment containing amino acids 150-408 (myc-Akt1-PK): residues 150-408 of P31749
Akt1 fragment containing amino acids 409-479 (myc-Akt1-AGC): residues 409-479 of P31749
UniProt P54646: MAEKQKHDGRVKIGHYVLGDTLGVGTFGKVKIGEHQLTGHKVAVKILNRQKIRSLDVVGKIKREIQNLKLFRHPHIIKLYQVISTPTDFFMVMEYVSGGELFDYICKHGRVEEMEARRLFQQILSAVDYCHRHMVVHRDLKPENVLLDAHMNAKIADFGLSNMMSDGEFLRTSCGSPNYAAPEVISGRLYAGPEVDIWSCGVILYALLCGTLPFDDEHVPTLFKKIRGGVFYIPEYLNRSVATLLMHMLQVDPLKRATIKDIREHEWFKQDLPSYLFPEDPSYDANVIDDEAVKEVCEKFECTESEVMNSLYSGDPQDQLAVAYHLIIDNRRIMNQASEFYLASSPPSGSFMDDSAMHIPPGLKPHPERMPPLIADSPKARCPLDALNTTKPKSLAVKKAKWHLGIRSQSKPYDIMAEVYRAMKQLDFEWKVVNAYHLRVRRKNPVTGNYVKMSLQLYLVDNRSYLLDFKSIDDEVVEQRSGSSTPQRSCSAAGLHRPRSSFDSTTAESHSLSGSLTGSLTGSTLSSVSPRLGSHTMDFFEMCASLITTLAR
UniProt O54950: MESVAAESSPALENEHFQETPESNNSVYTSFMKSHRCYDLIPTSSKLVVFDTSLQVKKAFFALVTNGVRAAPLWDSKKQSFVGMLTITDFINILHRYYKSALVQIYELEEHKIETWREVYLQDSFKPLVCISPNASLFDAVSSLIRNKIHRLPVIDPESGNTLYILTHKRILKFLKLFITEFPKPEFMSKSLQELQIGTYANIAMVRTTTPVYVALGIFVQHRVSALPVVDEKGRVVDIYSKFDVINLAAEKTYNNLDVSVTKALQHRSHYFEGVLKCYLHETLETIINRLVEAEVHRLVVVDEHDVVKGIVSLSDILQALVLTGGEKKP
UniProt P54619: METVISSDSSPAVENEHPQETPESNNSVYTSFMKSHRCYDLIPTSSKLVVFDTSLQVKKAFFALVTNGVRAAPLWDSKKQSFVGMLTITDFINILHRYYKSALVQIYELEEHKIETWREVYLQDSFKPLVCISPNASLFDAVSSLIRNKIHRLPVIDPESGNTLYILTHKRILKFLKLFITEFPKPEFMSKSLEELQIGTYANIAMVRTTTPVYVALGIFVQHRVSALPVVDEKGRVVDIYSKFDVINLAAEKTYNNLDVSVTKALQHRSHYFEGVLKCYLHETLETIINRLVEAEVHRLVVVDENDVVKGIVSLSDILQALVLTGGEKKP

These are yes or no findings as the source states them, for the method shown. In cells and extracts the contact can be indirect. Some entries that bind do so weakly or less than the wild type.

In experiment [1] the target is phosphorylated Akt1 (p-Akt1, Ser473), endogenous in mouse cardiomyocytes (mouse (endogenous in adult mouse cardiomyocytes)) (UniProt P31750). In words: co-IP; nuclear extracts and cytosol preparations of cultured mouse cardiomyocytes (control, PE, 11,12-EET pretreatment); immunoprecipitation with a p-Akt1-specific antibody or control IgG, blots for AMPK subunits, p-AMPKα2 and AMPKα2.

Another experiment has as its target GST-Akt1 (UniProt P31749). In words: pull-down; HEK293T cells transfected with GST-Akt1, pretreated with 11,12-EET, PE for 24 h; cytosolic and nuclear proteins purified with glutathione Sepharose beads, blots for Akt1 and AMPKγ1.
For experiment [2], the target named is Akt1 fragment containing amino acids 409-479 (myc-Akt1-AGC) (UniProt P31749). In words: co-IP; myc-tagged Akt1 (full length or fragments) with Flag-tagged AMPKα2, AMPKβ2 or AMPKγ1 in HEK293T cells; called 'in vitro binding assay' in the text.
The target of experiment [3] is Full-length Akt1 tagged with myc (myc-Akt1) (UniProt P31749). Described as above.
For experiment [4], the target named is Akt1 fragment containing amino acids 4-111 (UniProt P31749). Described as above.
The target of experiment [5] is Akt1 fragment containing amino acids 150-408 (myc-Akt1-PK) (UniProt P31749). The description is as above.
A further experiment addresses myc-conjugated AMPKα2-WT (UniProt P54646). In words: co-IP; HEK293T cells transfected with myc-AMPKα2-WT or myc-AMPKα2-T172A, with 11,12-EET and PE; nuclear lysates immunoprecipitated with a myc-specific antibody or control IgG, blots for p-Akt1, p-AMPKα2 and AMPKα2.
Experiment [6] has as its target myc-conjugated AMPKα2-T172A (UniProt P54646). The experiment is described as above.

For the substance “AMPKγ1 subunit, endogenous in mouse cardiomyocytes (from UniProt O54950 1-330)”, in experiment [1], the binding result is “binds”.
For “AMPKγ1, endogenous in HEK293T cells (from UniProt P54619 1-331)”, in the experiment with GST-Akt1, the binding result is recorded as “binds”.
As for “Flag-tagged AMPKγ1 (from UniProt P54619 1-331)”, the binding result in experiment [2] is “no binding”; in experiment [3], “binds”; in experiment [4], “no binding”; in experiment [5], “binds”.
For the substance “phosphorylated Akt1 (p-Akt1), endogenous in HEK293T cells (from UniProt P31749 1-480)”, the binding result (in the experiment with myc-conjugated AMPKα2-WT; in experiment [6]) was “no binding” in each case.
